Experimental data reported in PubChem BioAssay AID504333 (National Center for Advancing Translational Sciences (NCATS), 2011).
Where “and” joins values, the source holds several entries; their conditions need not be identical. Identical values can stand only once. About 16,000 (4.4%) of roughly 360,000 compounds were called active. Inconclusive means that the source gave no clear call. Such entries were picked first, then a sample of the others. The call rests on the fitted dose curve; in most records, active means well fitted inhibition curve with a large enough effect; inconclusive means small, poorly fitted or top-dose-only effect; inactive means no such curve, though single readings can be large or run the other way. Where the call is inconclusive, the potency comes from a doubtful curve fit.

molecular target: Bromodomain adjacent to zinc finger domain protein 2B (Homo sapiens) (UniProt Q9UIF8); assay: qHTS Assay for Inhibitors of BAZ2B; conditions: AlphaScreen BAZ2B-H3K14Ac peptide displacement; activity change, negative = inhibition: at 114 µM (top of the series); further: nearly all actives have a fitted effect of over 60% in size
Sequence of UniProt Q9UIF8 (Q9UIF8 whole entry, looked up, the tested form may be a part): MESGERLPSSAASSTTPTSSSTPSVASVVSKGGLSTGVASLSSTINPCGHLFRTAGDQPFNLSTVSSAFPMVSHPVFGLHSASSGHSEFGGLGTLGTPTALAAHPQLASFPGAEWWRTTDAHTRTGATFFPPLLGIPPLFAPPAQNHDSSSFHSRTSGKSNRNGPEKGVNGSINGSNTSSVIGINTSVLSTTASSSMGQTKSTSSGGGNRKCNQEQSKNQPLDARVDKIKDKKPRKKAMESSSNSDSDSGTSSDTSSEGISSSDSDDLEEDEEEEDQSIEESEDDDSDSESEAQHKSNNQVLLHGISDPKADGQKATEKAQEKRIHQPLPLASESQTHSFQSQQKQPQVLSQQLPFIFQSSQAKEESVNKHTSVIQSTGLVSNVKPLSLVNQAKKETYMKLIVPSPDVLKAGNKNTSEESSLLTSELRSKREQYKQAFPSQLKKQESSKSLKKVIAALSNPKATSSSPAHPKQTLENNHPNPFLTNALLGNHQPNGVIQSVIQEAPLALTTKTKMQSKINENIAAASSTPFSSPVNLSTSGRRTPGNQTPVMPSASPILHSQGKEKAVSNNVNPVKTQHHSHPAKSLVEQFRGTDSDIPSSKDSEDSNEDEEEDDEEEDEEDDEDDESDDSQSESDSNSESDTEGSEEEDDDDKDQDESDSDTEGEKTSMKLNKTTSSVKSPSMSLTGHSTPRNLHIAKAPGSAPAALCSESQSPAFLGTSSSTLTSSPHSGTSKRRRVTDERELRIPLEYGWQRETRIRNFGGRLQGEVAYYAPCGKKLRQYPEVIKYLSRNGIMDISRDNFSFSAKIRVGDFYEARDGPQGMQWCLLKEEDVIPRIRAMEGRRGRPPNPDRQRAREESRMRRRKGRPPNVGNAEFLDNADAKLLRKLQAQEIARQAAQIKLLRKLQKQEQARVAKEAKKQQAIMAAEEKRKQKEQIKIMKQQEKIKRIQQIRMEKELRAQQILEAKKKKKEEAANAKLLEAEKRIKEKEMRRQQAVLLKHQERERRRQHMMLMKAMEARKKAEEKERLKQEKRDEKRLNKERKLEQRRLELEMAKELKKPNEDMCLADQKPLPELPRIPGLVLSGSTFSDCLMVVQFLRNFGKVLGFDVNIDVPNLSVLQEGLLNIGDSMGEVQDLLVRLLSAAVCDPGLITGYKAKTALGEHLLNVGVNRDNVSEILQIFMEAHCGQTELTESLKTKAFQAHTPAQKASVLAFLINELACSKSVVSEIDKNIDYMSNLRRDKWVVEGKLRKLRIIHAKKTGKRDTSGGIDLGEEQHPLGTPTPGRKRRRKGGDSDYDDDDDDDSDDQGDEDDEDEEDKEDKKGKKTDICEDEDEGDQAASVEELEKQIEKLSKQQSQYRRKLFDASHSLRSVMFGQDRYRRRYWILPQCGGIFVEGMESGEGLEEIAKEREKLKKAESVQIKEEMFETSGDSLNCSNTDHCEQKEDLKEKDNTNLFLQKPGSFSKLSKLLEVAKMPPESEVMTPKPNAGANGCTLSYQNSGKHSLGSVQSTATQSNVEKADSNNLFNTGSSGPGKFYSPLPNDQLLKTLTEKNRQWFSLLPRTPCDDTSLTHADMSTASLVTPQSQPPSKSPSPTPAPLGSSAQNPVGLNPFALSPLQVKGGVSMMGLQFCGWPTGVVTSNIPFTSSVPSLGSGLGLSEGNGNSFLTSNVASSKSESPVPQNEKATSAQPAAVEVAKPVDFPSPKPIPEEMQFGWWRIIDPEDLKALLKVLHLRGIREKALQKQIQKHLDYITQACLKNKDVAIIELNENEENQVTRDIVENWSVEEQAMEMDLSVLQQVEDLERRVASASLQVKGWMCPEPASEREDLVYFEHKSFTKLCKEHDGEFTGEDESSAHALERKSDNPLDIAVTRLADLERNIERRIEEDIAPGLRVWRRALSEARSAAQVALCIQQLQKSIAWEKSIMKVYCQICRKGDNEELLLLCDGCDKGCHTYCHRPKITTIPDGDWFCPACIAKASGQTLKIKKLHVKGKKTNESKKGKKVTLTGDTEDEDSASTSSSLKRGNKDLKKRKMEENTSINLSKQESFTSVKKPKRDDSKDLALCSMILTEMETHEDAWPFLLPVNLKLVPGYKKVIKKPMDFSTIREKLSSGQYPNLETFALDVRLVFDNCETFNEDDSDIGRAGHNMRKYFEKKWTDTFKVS
How it was run: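 BAZ2B 50 nM plus b-H3(5-23)K14Ac 50 nM, PBS pH 7.4/0.01% Tween-20, 30 min RT; compound added (max 110 uM), 30 min RT; streptavidin donor/Ni-chelate acceptor beads 10 ug/mL final, 20 min dark; AlphaScreen read.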
On the % scale 0 is the no-effect control and ±100 the full control effect; potency means the concentration at half of the fitted maximal effect; tags describe the fitted curve by direction and shape.

Row | Compound | Potency | activity change, negative = inhibition
1 | CCNC(=O)c1c(O)c2cccc3c2n(c1=O)CC3 | inconclusive: 100 µM [inhibitor, single point] | 
2 | CSC(=S)N/N=C(\C)c1ccccc1 | inconclusive: 20 µM [inhibitor, full curve] | 
3 | COc1cccc(C(=O)NC(=S)Nc2ccc(N(C)C)cc2)c1 | active: 10 µM | 
4 | CC(=O)NS(=O)(=O)c1ccc(NC(=O)/C=C/c2cn(-c3ccccc3)nc2-c2ccccc2)cc1 | inconclusive: 79.4 µM [inhibitor, single point] | 
5 | COC(=O)c1ccc(NC(=O)C(C)Sc2nc(=O)cc(N)n2CCc2ccccc2)cc1 (stereo not given) | inconclusive: 79.4 µM [inhibitor, single point] | 
6 | ON1C2CCCCC2N(O)C1c1ccccc1C(F)(F)F (stereo not given) |  | inactive: -0.917%
7 | COCCNC(=O)CSCc1nc(-c2ccc(SC)cc2)oc1C |  | inactive: -30.7%
8 | Cc1cc(C)n2[nH]c(=O)c(N=Nc3cccc(Cl)c3)c2n1 | inconclusive: 89.1 µM [inhibitor, single point] | 
9 | CCOC(=O)c1c(C)[nH]c(C(=O)CSc2nnc(-c3cccs3)n2Cc2ccccc2)c1C |  | inactive: -4.45% [at 57.1 µM]
10 | N#C/C(=N\Nc1ccccc1)C(N)=S | inconclusive: 50.1 µM [inhibitor, partial curve] | 
11 | O=C(N/N=C/c1ccc(-c2ccc(S(=O)(=O)Nc3ncccn3)cc2)o1)c1cc2ccccc2cc1O | active: 17.8 µM | 
12 | CCS(=O)(=O)c1ncc(Cl)c(C(=O)Nc2ccc(S(=O)(=O)N(C)c3ccccc3)cc2)n1 | inactive and inconclusive: 79.4 µM [inhibitor, single point] | 
13 | Cc1ccc(/C=C/c2onc(C)c2S(=O)(=O)N2CCC(C(=O)N3CCN(C)CC3)CC2)cc1 |  | inactive: -32%
14 | CC(C)NCCCOc1ccc(Cl)cc1Br | inconclusive: 79.4 µM [inhibitor, single point] | 
15 | COc1ccc(N(C(=O)c2ccco2)C(C(=O)NC2CCCC2)c2ccc(N(C)C)cc2)cc1 (stereo not given) | active: 50.1 µM | 
16 | CCOC(=O)C1CCN(Cc2ccc(F)c(Br)c2)CC1 | active: 50.1 µM | 
17 | COc1ccccc1C(=O)Nc1nnc(SCc2cc(=O)c3ccccc3[nH]2)s1 | inconclusive: 89.1 µM [inhibitor, single point] | 
18 | Cc1ccc(C)c(S(=O)(=O)NNC(=O)Nc2ccccc2Cl)c1 | inconclusive: 89.1 µM [inhibitor, single point] | 
19 | COc1ccc(CN2CCN(CC(O)Cn3c4ccccc4c4ccccc43)CC2)cc1 (stereo not given) | inconclusive: 50.1 µM [inhibitor, partial curve] | 
20 | Cc1cc(C)c2cccc(NC(=S)NC(=O)c3ccccc3)c2n1 | inconclusive: 25.1 µM [inhibitor, full curve, poor fit] | 
21 | CCOC(=O)Cc1csc(NC(=O)CSc2nc(C)cc(=O)[nH]2)n1 | active: 50.1 µM | 
22 | COc1ccc(NC(=O)CCCOc2cc(=O)n(C)c3ccccc23)c(OC)c1 | inconclusive: 89.1 µM [inhibitor, single point] | 
23 | COc1cccc(NC(=O)CCN2CCN(C)CC2)c1 | inconclusive: 89.1 µM [inhibitor, single point] | 
24 | COc1ccc(N2CCOCC2)c(NC(=O)c2ccc(Br)o2)c1 | inconclusive: 44.7 µM [inhibitor, partial curve] | 

Row | Compound | Potency | activity change, negative = inhibition
25 | Cc1ccc(NC(=O)Cn2cnc3c(oc4ccccc43)c2=O)cc1Cl | inconclusive: 79.4 µM [inhibitor, partial curve] | 
26 | C/C(=N\Nc1nc2ccccc2[nH]1)c1ccc2c(c1)OCCO2 | active: 31.6 µM | 
27 | CCOC(=O)c1ccc(NS(=O)(=O)c2ccc(-c3coc(C)n3)cc2)cc1 |  | inactive: -4.46% [at 57.1 µM]
28 | CCOC(=O)c1cnc2c(Cl)c(Cl)ccc2c1N1CCN(C)CC1 | inconclusive: 70.8 µM [inhibitor, single point] | 
29 | Cc1cc(/C=N/NC(=O)c2ccncc2)c(C)n1-c1ccccc1 | inconclusive: 89.1 µM [inhibitor, single point] | 
30 | COc1ccc(N2CCN(c3ccc(C(=O)O)cc3[N+](=O)[O-])CC2)cc1 | inconclusive: 79.4 µM [inhibitor, single point] | 
31 | COC(=O)c1cc(NC(=O)c2cccnc2)cc(C(=O)OC)c1 |  | inactive: -15.4%
32 | CN(CCN1CCc2ccccc2C1)Cc1nc(Cc2ccccc2F)no1 |  | inactive: -14.9%
33 | Clc1ccc(-c2csc(=Nc3cccnc3)n2CCCn2ccnc2)cc1Cl | active: 11.2 µM | 
34 | O=C(CS(=O)c1ccccc1[N+](=O)[O-])Oc1ccc(Br)cc1 (stereo not given) | inconclusive: 79.4 µM [inhibitor, single point] | 
35 | COc1ccc(-c2nc(NC(=O)c3ccc(OCC(=O)N4CCOCC4)c(OC)c3)sc2C)cc1 | inconclusive: 44.7 µM [inhibitor, partial curve] | 
36 | Cc1noc(-c2ccccc2OCC(=O)Nc2cccc([N+](=O)[O-])c2)n1 | inconclusive: 31.6 µM [inhibitor, partial curve] | 
37 | CN(C)S(=O)(=O)c1cc(NC(=O)c2cc(=O)c3ccccc3o2)ccc1Cl |  | inactive: -17.9%
38 | Cc1ccc(Nc2c([N+](=O)[O-])c(=O)n(C)c3ccccc23)cc1 | inconclusive: 79.4 µM [inhibitor, single point] | 
39 | Cc1ccc2cc(CN(CC3CCCO3)C(=S)NCc3ccco3)c(=O)[nH]c2c1C (stereo not given) | inconclusive: 56.2 µM [inhibitor, partial curve] | 
40 | Cc1ccc2c(c1)c1c3n2CC(=C2C(=O)OC(C)(C)OC2=O)NC3CCC1 (stereo not given) | inconclusive: 89.1 µM [inhibitor, single point] | 
41 | CC(C)=CCN1CCN(Cc2cccn2-c2ccccn2)CC1CCO (stereo not given) | inconclusive: 89.1 µM [inhibitor, single point] | 
42 | COC(=O)C1CCN(c2c([N+](=O)[O-])cc(C(F)(F)F)cc2[N+](=O)[O-])CC1 | active: 35.5 µM | 
43 | CC1Cc2ccccc2N1C(=O)CNc1cccc(S(=O)(=O)N2CCCC2)c1 (stereo not given) | inconclusive: 79.4 µM [inhibitor, partial curve] | 
44 | O=C(CN1CCN(S(=O)(=O)c2ccc(Cl)cc2)CC1)c1ccc(O)c(O)c1 | inconclusive: 39.8 µM [inhibitor, partial curve] | 
45 | Cc1ccc(CN2CCN(Cc3ccccn3)CC2CCO)cc1 (stereo not given) | active: 56.2 µM | 
46 | C=CCn1c(SCC(=O)c2ccccc2)nnc1-c1ccc2c(c1)OCO2 | inconclusive: 89.1 µM [inhibitor, single point] | 
47 | COc1ccc(OC)c(NC(=O)CSc2nnc(-c3cnccn3)n2C)c1 |  | inactive: -14.1%
48 | CC1CCC2C(=O)N(c3ccc(S(=O)(=O)c4ccccc4)cc3)C(=O)C2C1 (stereo not given) |  | inactive: 2.99%

Row | Compound | Potency | activity change, negative = inhibition
49 | COc1ccc(NC(=O)c2cc3ccccc3cc2OC)cc1 |  | inactive: 5.64%
50 | C/C(=N\NC(=O)c1cccc(S(=O)(=O)N2CCCC2)c1)c1ccccc1F | inconclusive: 89.1 µM [inhibitor, single point] | 
51 | O=C(CSc1nnc(Cc2cccs2)n1Cc1ccco1)Nc1cccc(Cl)c1 | inconclusive: 79.4 µM [inhibitor, single point] | 
52 | Cc1ccc(NC(=O)N2CCC(n3c(C)nc4cccnc43)CC2)c(Cl)c1 |  | inactive: -11.8%
53 | Clc1ccc2nc(-c3ccccn3)c(Nc3ccc4c(c3)OCO4)n2c1 | active: 2.82 µM | 
54 | O=C(CCCN1C(=O)c2ccccc2C1=O)Nc1ccc(S(=O)(=O)N2CCCCC2)cc1 | inconclusive: 89.1 µM [inhibitor, single point] | 
55 | CC(=O)Nc1cccc(NC(=O)CSc2nnc(Cc3cccn3C)n2-c2ccc(C)cc2)c1 | inconclusive: 25.1 µM [inhibitor, partial curve] | 
56 | CN1/C(=C\C=C2/C(=O)Oc3ccccc3C2=O)C(C)(C)c2ccccc21 | inconclusive: 44.7 µM [inhibitor, partial curve] | 
57 | COc1ccc(-c2cnc(C)o2)cc1S(=O)(=O)Nc1ccc(C)c(F)c1 | inconclusive: 50.1 µM [inhibitor, partial curve] | 
58 | Cc1cccc(NS(=O)(=O)c2ccc(C(=O)N3CCN(c4ccccc4O)CC3)cc2)c1C | inconclusive: 31.6 µM [inhibitor, full curve, poor fit] | 
59 | O=C(CSc1nccn1Cc1ccc(Cl)cc1)NC1CCCC1 | inconclusive: 79.4 µM [inhibitor, single point] | 
60 | FC(F)(F)c1ccccc1/C=N/Nc1ccccn1 |  | inactive: -12.7%
61 | Cc1nc(N)sc1-c1csc(Nc2ccc(Cl)cn2)n1 | inconclusive: 44.7 µM [inhibitor, partial curve] | 
62 | COc1ccc(-c2csc(NCc3ccco3)n2)cc1C | active: 44.7 µM | 
63 | O=C(Nc1nnc(-c2ccco2)s1)C1CC1 | inconclusive: 89.1 µM [inhibitor, single point] | 
64 | CCCCc1c(O)cc(C)[nH]c1=O |  | inactive: 0.185%
65 | CCOc1ccccc1NC(=O)Cn1c(=O)ccc2cc(S(=O)(=O)N3CCC(C)CC3)ccc21 |  | inactive: 2.13%
66 | COc1cc(NC(=O)c2cccs2)c(C(=O)OCC(=O)NC(=O)NCc2ccccc2)cc1OC | inconclusive: 7.08 µM [inhibitor, single point] | 
67 | O=[N+]([O-])c1cccnc1Sc1n[nH]c(-c2ccc(Cl)cc2)n1 |  | inactive: -3.52%
68 | O=C(COC(=O)C12CC3CC(CC(C3)C1)C2)Nc1ccc([N+](=O)[O-])cc1Br | inconclusive: 56.2 µM [inhibitor, single point] | 
69 | CCCCC(CC)C1OCC(C[N+]2(C)CCOCC2)O1 (stereo not given) | inconclusive: 89.1 µM [inhibitor, single point] | 
70 | Cc1ccc(Oc2cc(NC(=O)CCCn3nc([N+](=O)[O-])cc3C)cc([N+](=O)[O-])c2)cc1 | inconclusive: 39.8 µM [inhibitor, full curve, poor fit] | 
